# Laboratory results: the supplement of paper PMC12217912
# This is one part of the list. The full chains were built here from the parent and the listed change. Inactive controls read about 0.05.
# B1: TEV protease; numbered along this chain (parent)
# chain: MGESLFKGPRDYNPISSSICHLTNESDGHTTSLYGIGFGPFIITNKHLFRRNNGTLVVQSLHGVFKVKDTTTLQQHLVDGRDMIIIRMPKDFPPFPQKLKFREPQREERICLVTTNFQTKSMSSMVSDTSCTFPSGDGIFWKHWIQTKDGQCGSPLVSTRDGFIVGIHSASNFTNTNNYFTSVPKNFMELLTNQEAQQWVSGWRLNADSVLWGGHKVFMVKPEEPFQPVKEATQL
# Variants of: B1
# Test: raw area under fraction-flipped curve 0-4 h after induction (AUC4h, not background-subtracted), DNA-recorder readout of cleavage of the substrate (dimensionless); higher = more cleavage of the substrate by the protease variant
# Details: temperature: 34 °C; time window: 0-4 h after rhamnose induction
# Description: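 In vivo DNA recorder in E. coli TOP10(DE3) ΔrhaA at 34 °C. Each TEVp single-site mutant (parent TEVp 0) is paired with a single-site variant of the 7-mer TEVs (canonical ENLYFQ|S). The substrate sits between flexible linkers in a Bxb1-sfGFP-TEVs-SsrA fusion, so cleavage stabilises Bxb1 and speeds flipping of a recombination array, read by NGS. The value is the raw area under the fraction-flipped curve over 0-4 h after rhamnose induction (AUC4h), with ≥20 reads per time point. It is not background-subtracted; inactive controls average about 0.047.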
# 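Further: Bxb1 expression induced with 0.2% (w/v) L-rhamnose at OD600 near 0.5, cultures sampled hourly, flipped fraction per protease–substrate barcode pair counted by paired-end Illumina sequencing.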
Variant,area with substrate ENLYAQS,area with substrate ENLYCQS,area with substrate ENLYDQS,area with substrate ENLYHQS,area with substrate ENLYIQS,area with substrate ENLYKQS,area with substrate ENLYLQS,area with substrate ENLYNQS,area with substrate ENLYQQS,area with substrate ENLYRQS,area with substrate ENLYSQS,area with substrate ENLYVQS,area with substrate ENLYGQS,area with substrate ENLYMQS,area with substrate ENLYPQS,area with substrate ENLYEQS,area with substrate ENLYWQS,area with substrate ENLYYQS,area with substrate ENLYTQS
G80Y,0.0774,0.076,0.0672,0.0642,0.107,0.0682,0.0832,0.0679,0.062,0.0616,0.0459,0.095,–,–,–,–,–,–,–
D82I,0.071,–,–,0.0442,0.0381,0.022,–,–,–,–,0.0421,–,0.0461,0.0414,0.0181,–,–,–,–
M83P,0.0389,–,0.0537,–,–,–,–,0.0427,0.0594,–,0.027,0.0657,0.0666,–,0.0462,0.0545,–,–,–
M83Q,0.084,0.061,0.0776,0.0387,0.0788,0.0613,–,0.0595,–,0.0565,0.0446,0.019,0.0532,0.0643,–,0.0588,0.0566,–,–
M83S,0.0636,–,–,0.0598,–,–,–,0.0564,–,0.0556,–,0.0742,0.0304,0.068,–,0.0403,–,0.0478,–
I85G,0.054,–,0.0531,0.0486,0.0553,0.0436,–,–,0.0451,0.0538,0.0509,–,–,0.055,0.0414,0.0453,0.0513,–,0.0438
I86A,0.0642,0.0558,0.0642,0.0612,0.0714,0.0517,0.0505,0.0495,0.0703,–,–,0.0724,0.0634,0.0496,0.046,0.0558,0.0519,0.0525,–
R87P,0.0666,–,0.0658,0.0518,–,0.073,–,0.0548,0.0591,0.0506,0.0615,–,–,–,0.0594,0.0572,–,–,0.0477
K90C,0.0735,0.0581,0.0668,0.0654,0.115,0.0618,0.0861,0.0697,0.0587,0.0616,0.0695,0.127,–,–,0.0634,0.0719,0.0644,0.073,0.078
K90Q,0.0787,–,0.0747,0.0564,0.136,0.0335,–,–,0.053,0.052,0.0583,0.104,0.0742,0.0642,0.0611,–,–,–,–
D91L,0.0621,0.117,0.0732,0.0619,–,0.0388,0.0804,0.0691,–,0.0634,–,–,0.0725,0.108,0.0813,–,–,–,–
D91V,0.0455,–,–,0.0624,–,0.0734,–,0.0519,0.0587,0.0393,0.0673,0.102,0.0562,0.0807,–,–,0.086,–,0.075
F92P,0.053,0.0455,0.0544,0.0608,0.0803,0.0597,0.0543,0.156,0.0734,–,0.0614,–,0.0588,0.0655,0.0532,0.0558,0.0519,–,–
P93H,0.0645,–,0.0586,0.0633,0.104,0.0567,–,0.0697,0.0809,–,0.0733,–,0.0581,0.0801,0.0725,0.063,0.0708,0.0615,–
P94M,0.0595,–,0.0565,0.0818,0.101,–,–,0.0522,0.0614,–,0.0677,–,0.0664,0.0562,0.101,0.0694,0.0767,–,0.0772
F95T,0.0536,0.0601,–,–,–,0.0474,–,–,–,0.0373,0.0428,0.0997,0.053,0.057,–,–,–,–,–
K100M,0.0504,0.114,0.052,–,–,0.0704,–,0.0572,–,–,–,–,–,0.0741,0.0717,–,0.0045,–,–
E103F,0.0746,–,0.077,0.0744,0.126,0.051,0.089,0.0795,–,0.073,–,–,–,–,0.0827,0.0677,0.0893,–,–
P104E,0.0254,0.0517,0.0645,0.0469,0.0539,0.0513,–,0.0436,0.0494,–,–,–,–,0.0623,0.0555,0.0623,0.0452,0.0832,0.0485
Q105H,0.0836,–,–,0.0807,0.179,–,–,0.0551,–,–,0.0687,–,–,–,0.0706,0.0662,0.0614,0.0972,0.0916
E108C,0.0754,–,0.0671,0.059,0.0818,0.0545,–,0.0555,–,0.0677,0.0525,0.0805,–,0.0677,0.0662,–,0.0584,0.0554,0.064
E108H,0.0733,–,0.053,0.0572,0.0688,0.0509,0.0583,0.0582,0.0522,0.0321,0.0532,0.084,–,0.0633,0.0528,0.0728,–,–,0.0555
R109F,0.0674,0.0933,–,0.0718,0.12,0.0533,–,0.0659,0.0463,0.0709,0.0626,0.098,0.0643,0.0842,0.0656,0.0636,0.102,0.0598,–
C111V,0.0798,–,0.046,0.054,0.126,0.0576,–,0.0697,–,0.0662,–,0.0897,0.0521,–,–,0.0619,0.127,0.0711,–
L112P,0.0421,0.0512,–,0.0611,0.05,0.0472,0.0513,0.057,0.048,0.0549,–,–,0.0556,0.053,0.0645,0.0587,0.0604,–,0.0584
T115D,0.0919,–,0.0592,0.0884,–,0.063,0.0915,–,–,–,0.074,0.117,–,0.0868,–,0.0644,0.0918,0.0762,0.0951
T115S,0.0601,0.101,–,0.0727,0.146,0.0413,0.102,0.0299,–,–,–,–,0.0731,0.0822,–,0.0736,–,–,0.0792
T115V,0.0895,–,0.0668,0.0782,0.139,–,–,0.0612,0.0636,–,0.069,0.11,0.0568,0.087,–,0.0804,–,0.0535,–
